# Source: PubChem BioAssay AID686979 (National Center for Advancing Translational Sciences (NCATS), 2013)
# “And” between values parts separate entries of the source, which are not always exact repeats. Equal values may be shown once. Out of some 420,000 compounds screened, about 50,000 (12%) were called active. Inconclusive results, whose numbers are uncertain, are shown with a selection of clear calls. Calls come from the whole dose curve; as a rule, active = well fitted inhibition curve with a large enough effect; inconclusive = small, poorly fitted or top-dose-only effect; inactive = flat fitted curve, though single readings scatter. A potency beside an inconclusive call is a rough fit, not a confirmed value.
# Assay: qHTS for Inhibitors of human tyrosyl-DNA phosphodiesterase 1 (TDP1): qHTS in cells in presence of CPT; note: nearly all actives have a fitted effect of over 55% in size
# Settings: chicken DT40 Tdp1-/-;hTDP1 cells + 20 nM CPT, ATP luminescence, 48 h; activity change, negative = growth inhibition: at 46.2 µM (top of the series) unless noted
# How it was run: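 Chicken DT40 Tdp1-/- cells stably complemented with human TDP1 were seeded at 400 cells/well in medium containing 20 nM camptothecin, exposed to pin-transferred compounds, and grown at 37 °C for at least 48 hr. Viability was read as ATP luminescence.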
# % is set by controls: 0 for no effect and ±100 for the full control effect; potency is the fitted concentration of half-maximal effect; tags give direction and shape of the fitted curve.
SMILES,Potency,"activity change, negative = growth inhibition"
CC(Cc1ccccc1)NC(=O)/C=C/c1ccc(Cl)cc1 (centres undefined),"inconclusive: 29.1 µM [inhibitor, single point]",
C#C[C@]1(O)CCC2C3C(=O)C=C4C=CCC[C@]4(C)C3CC[C@@]21C (some centres undefined),inactive,
COc1ccc2c(c1)NP(=S)(c1ccccc1)N2 (centres undefined),"inconclusive: 29.1 µM [inhibitor, single point]",
N#Cc1ccc(CN2Cc3ccccc3-n3nncc3C2)cc1,"inconclusive: 29.1 µM [inhibitor, single point]",
Cc1cccc(N2C(=O)/C(=C/c3ccc(N4CCN(C)CC4)o3)C(=O)NC2=S)c1C,inactive,
CC12CCC(O)CC1CCC1C2CCC2(C)C(C3=CC(=O)OC3)CCC12O (centres undefined),"inconclusive: 20.6 µM [inhibitor, single point]",
CN1C2CCC1CC(OC(=O)c1cccc(O)c1)C2 (centres undefined),inactive,
COc1ccc(NC(=O)c2c(C)nn(Cc3ccccc3Cl)c2Cl)cc1Cl,inactive,
CC(=O)O[C@]1(C)C(=O)OC/C2=C/CN(C)CCC(OC(=O)[C@@](O)(C(C)O)C[C@H]1C)C2=O (some centres undefined),inactive,
COC(=O)C1=C(c2ccc(Cl)c(C(F)(F)F)c2)C[C@@H]2CC[C@H]1N2C(=O)NCc1cc(C)oc1C(F)(F)F,"inconclusive: 29.1 µM [inhibitor, single point]",
CCc1ccc(-n2c(=O)c3sc4ccccc4c3n(CC(=O)NC3CCCC3)c2=O)cc1,"inconclusive: 29.1 µM [inhibitor, single point]",
CC[C@@]1(C(=O)OC)N[C@H](CN(C)C(=O)Nc2ccc(C(F)(F)F)cc2)[C@@H]2C(=O)N(Cc3ccccc3)C(=O)[C@@H]21,"inconclusive: 1.64 µM [inhibitor, full curve, poor fit]",
CCOC(=O)c1ccc(NC(=O)Nc2cc3c(cc2N2CCCCC2)n(CC)c(=O)n3CC)cc1,active: 11.6 µM,
COc1ccc2[nH]c3c(c2c1)CCN1C(=O)C(CC(=O)NCc2cccc(C(F)(F)F)c2)C[C@H](C(=O)N2CCCCC2)[C@@]31C (some centres undefined),active: 10.3 µM,
COC1CC(=C(c2cccs2)c2cccs2)C[N+](C)(C)C1 (centres undefined),"inconclusive: 29.9 µM [inhibitor, single point]",
CC(=O)O[C@H]1[C@H]2O[C@]23[C@@H]2CC[C@]4(O)C[C@@H](O)CC[C@]4(C)C2CC[C@]3(C)[C@H]1c1ccc(=O)oc1 (some centres undefined),active: 6.51 µM,
CC(C)(C)c1o[nH]c(=O)c1C[C@H](N)C(=O)O,inactive,
Cn1c(O)c(C(c2ccccn2)c2c(O)n(C)c(=S)n(C)c2=O)c(=O)n(C)c1=S,inactive,
CCOc1cc2c(cc1OCC)-n1cccc1C(c1ccccc1F)NC2 (centres undefined),"inconclusive: 23.1 µM [inhibitor, single point]",
COc1cc2c(cc1O)CC[n+]1cc3c(OC)c(OC)ccc3cc1-2,"inconclusive: 29.1 µM [inhibitor, single point]",
CC(=O)C1CCC2C3C(N4CC4)CC4=CC(=O)CCC4(C)C3CCC12C (centres undefined),active: 3.66 µM,
COc1ccc(CNC(=O)C2CCN(C(=O)c3cnn(-c4ccccc4)c3-n3cccc3)CC2)cc1,active: 16.4 µM,
CC(C)N1CCOC(c2ccc(O)c(O)c2)C1 (centres undefined),"inconclusive: 13 µM [inhibitor, partial curve, poor fit]",

SMILES,Potency,"activity change, negative = growth inhibition"
CC(=O)O[C@H]1C[C@@H]2OC3C=C(C)CCC3(C)[C@@]1(C)[C@@]21CO1 (some centres undefined),active: 0.58 µM,
Oc1ccc2[nH]cc(CCCCN3CC=C(c4ccccc4)CC3)c2c1,active: 26.6 µM,
COc1cccc(-c2nc3c(C#N)c[nH]n3c2NC2CCCCC2)c1OC,"inconclusive: 29.1 µM [inhibitor, single point]",
O=C1Nc2ccc(Cl)cc2C(c2ccccc2Cl)=NC1O (centres undefined),"inconclusive: 23.7 µM [inhibitor, single point]",
CCn1c(C)c(C(=O)Nc2ccc(OC)cc2)c2cc(OC)ccc21,inactive,
Cc1ccc2[nH]c(C)c(CCNCc3cccnc3)c2c1,inactive,
CC(=O)OC1(c2ccccc2)CCN(CCc2ccccc2)CC1,"inconclusive: 78.5 µM [inhibitor, single point]",
CC1(C)C(=O)CC[C@@]2(C)C1=CCC1C2CC[C@]2(C)C(=O)CCC12 (some centres undefined),active: 16.4 µM,
Cc1nccc2c1[nH]c1ccc(Br)cc12,"inconclusive: 29.1 µM [inhibitor, single point]",
O=c1[nH]c(=O)n(Cc2ccco2)c(O)c1/C=N/N1CCCCCC1,inactive,
COc1ccc(N2CCN(C(=O)CCCCCn3c(=S)[nH]c4ccc(N5CCOCC5)cc4c3=O)CC2)cc1,active: 4.11 µM,
CC(C)C(N)C(=O)OCCOCn1cnc2c(=O)[nH]c(N)nc21 (centres undefined),active: 2.06 µM,
Nc1ccccc1Nc1ccc([N+](=O)[O-])cc1[N+](=O)[O-],"inconclusive: 20.6 µM [inhibitor, single point]",
COc1ccc(-n2c(/C=C/c3ccc(O)c(O)c3)nc3ccccc3c2=O)cc1,"inconclusive: 23.1 µM [inhibitor, single point]",
COc1cc(Cl)ccc1Nc1ncc(C(=O)N2CCN(c3ccccc3OC)CC2)c2ccccc12,active: 14.6 µM,
COC(=O)C1=C(c2ccccc2)C[C@@H]2CC[C@H]1N2C(=O)NCc1cccc2ccccc12,"inconclusive: 29.1 µM [inhibitor, single point]",
COP(=O)(OC)C(NC(=O)/C=C/c1ccccc1)C(Cl)(Cl)Cl (centres undefined),inactive,
CCOC(=O)C1CCCN(Cc2ccc(-c3ccccc3)cc2)C1 (centres undefined),"inconclusive: 29.1 µM [inhibitor, single point]",
c1ccc2sc(C3(N4CCCC4)CCCCC3)cc2c1,"inconclusive: 29.1 µM [inhibitor, single point]",
Cc1ccnc(NC(=O)CCCc2ccc(N(CCCl)CCCl)cc2)n1,active: 0.231 µM,
CCC(=NCc1cc(OC)cc(OC)c1)c1c(O)n(C)c(=O)n(C)c1=O,active: 10 µM,
O=c1[nH]c2ccccc2n1C1CCN(C(CCc2ccccc2)c2nnnn2Cc2ccccc2)CC1 (centres undefined),active: 2.31 µM,
O=c1[nH]/c(=C\c2ccc(N(CCCl)CCCl)cc2)c(=O)[nH]/c1=C\c1ccc(N(CCCl)CCCl)cc1,active: 3.16 µM,

SMILES,Potency,"activity change, negative = growth inhibition"
NC(=O)c1cc([N+](=O)[O-])cc([N+](=O)[O-])c1,"inconclusive: 29.1 µM [inhibitor, single point] and inconclusive: 23.1 µM [inhibitor, single point]",
COC(=O)C1=C(c2cc3ccccc3s2)C[C@@H]2CC[C@H]1N2C(=O)NCc1ccc(C(F)(F)F)cc1,"inconclusive: 29.1 µM [inhibitor, single point]",
CC(C)n1c(=O)c(C=Nc2ccc(F)cc2)c(O)n(Cc2ccco2)c1=O,inactive,
CCN1CCN(S(=O)(=O)c2cnc(Cl)c(Br)c2)CC1,,inconclusive: -34% [inhibitor]
CC(C)(C)[C@]1(O)C[C@@H]2OC(=O)C[C@@]23C(=O)O[C@@H]2OC(=O)[C@@H](O)C213 (some centres undefined),inactive,
Cc1cc2ccccc2n1CCNC(=O)COc1ccccc1,"inconclusive: 29.1 µM [inhibitor, single point]",
O=C1CN=C(c2ccccc2)c2c(sc3c2CCCC3)N1,"inconclusive: 29.1 µM [inhibitor, single point]",
Cc1ccc(N2C(=O)NC(=O)/C(=C\c3ccc(N4CCOCC4)cc3)C2=O)cc1,"inconclusive: 32.6 µM [inhibitor, single point]",
COc1ccc(S(=O)(=O)N(C)C[C@H]2OCCCC[C@@H](C)Oc3ccc(N(C)C)cc3C(=O)N([C@H](C)CO)C[C@@H]2C)cc1,"inconclusive: 29.1 µM [inhibitor, single point]",
Cc1ncc(CN2CCCC(C(=O)c3cccc(OC(C)C)c3)C2)s1 (centres undefined),"inconclusive: 29.1 µM [inhibitor, single point]",
CC(C)NC(=O)N1CCC2(CCNCC2)CC1,inactive,
CCC1(NS(=O)(=O)c2ccc(N)cc2)C(=O)N(C)C(=O)N(C)C1=O,"inconclusive: 29.1 µM [inhibitor, single point]",
C[C@H](CO)N1C[C@H](C)[C@@H](CN(C)C(=O)Oc2cccc3ccccc23)OCc2cn(nn2)CCCC1=O,,inconclusive: -30.3% [inhibitor]
CCCCn1nnnc1C(c1cccs1)N1CCC2(CC1)C(=O)NCN2c1ccccc1 (centres undefined),"inconclusive: 29.1 µM [inhibitor, single point]",
O=C(/C=C/c1c[nH]c2ccccc12)c1c(O)n(CCc2ccccc2)c(=O)[nH]c1=O,inactive,
CC(C)CN1CC2(CCN(C(=O)c3ccncc3)CC2)C1,inactive,
C[C@]12CC[C@H](O)CC1C(=O)CC1C2CC[C@@]2(C)C1CC[C@@H]2O (some centres undefined),inactive,
CC(=O)O[C@H]1CC[C@H]2[C@@H]3CCC4=CC(=O)CCC4=C3C=C[C@]12C,"inconclusive: 29.9 µM [inhibitor, single point]",
COc1cc2c(c(OC)c1OC)-c1ccc(OC)c(=O)cc1C(NC(C)=O)CC2 (centres undefined),active: 46.1 nM and active: 18.4 nM,
C/C(=N\N=C(N)N)c1ccccc1,"inconclusive: 25.9 µM [inhibitor, single point]",
CC(=O)c1cccc(NC(=O)N2C[C@H]3C[C@@H](C2)c2cccc(=O)n2C3)c1,inactive,
COc1ccc(CN2Cc3cc(-c4ccccc4)ccc3-n3nncc3C2)cc1,"inconclusive: 29.1 µM [inhibitor, single point]",
Clc1ccc2c(c1)CCc1cccnc1C2=C1CCNCC1,active: 18.8 µM and active: 6.51 µM,
